Experimental findings from the supplement of paper PMC8728848 are described below.

The list shows a part of the results.

Common to all, as to experiment: glycan array binding signal (z-score within array); higher = stronger binding
Common to all, as to details: glycan notation: IUPAC condensed, linker removed

The target of assay [1] is GlcNAc(b1-3)Gal(b1-4)GlcNAc(b1-6)[GlcNAc(b1-3)Gal(b1-3)]GalNAc. The essentials: (§1)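 From the Consortium for Functional Glycomics database, 3228 arrays were curated, keeping only those whose protein sequence was available. Binding is given as a within-array Z-score averaged across arrays sharing a protein sequence and across linkers. Negative Z-scores can be read as non-binding.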

Assay [2] has as its target GlcNAc(b1-3)Gal(b1-4)GlcNAc(b1-6)[GlcNAc(b1-3)]Gal(b1-4)GlcNAc. The essentials: as §1
Assay [3] concerns the target GlcNAc(b1-3)GalNAc. The essentials:
as §1

The target of assay [4] is GlcNAc(b1-3)Man. The gist of the method: as §1
In assay [5] the target is GlcNAc(b1-3)[GlcNAc(b1-4)][GlcNAc(b1-6)]GlcNAc. The essentials: as §1
The target of assay [6] is GlcNAc(b1-3)[GlcNAc(b1-6)]Gal(b1-4)GlcNAc. The gist of the method: as §1
Assay [7] addresses GlcNAc(b1-3)[GlcNAc(b1-6)]GalNAc. The essentials:
as §1

Assay [8] addresses GlcNAc(b1-4)Gal(b1-4)GlcNAc. The essentials: as §1
Assay [9] concerns the target GlcNAc(b1-4)GlcNAc. The gist of the method:
as §1

Assay [10] has as its target GlcNAc(b1-4)GlcNAc(b1-4)GlcNAc. The gist of the method: as §1
The target of assay [11] is GlcNAc(b1-4)GlcNAc(b1-4)GlcNAc(b1-4)GlcNAc(b1-4)GlcNAc. The gist of the method: as §1
Assay [12] has as its target GlcNAc(b1-4)GlcNAc(b1-4)GlcNAc(b1-4)GlcNAc(b1-4)GlcNAc(b1-4)GlcNAc. The gist of the method:
as §1

The target in assay [13] is GlcNAc(b1-4)[GlcNAc(b1-6)]GalNAc. The essentials:
as §1

The target of assay [14] is GlcNAc(b1-6)Gal(b1-4)GlcNAc. The gist of the method:
as §1

For assay [15], the target named is GlcNAc(b1-6)GalNAc. The gist of the method:
as §1

The target of assay [16] is GlcNAc3Prop(b1-4)GlcNAc. The essentials:
as §1

Assay [17] has as its target GlcNAc6S(b1-3)Gal(b1-4)GlcNAc. The gist of the method:
as §1

Assay [18] deals with Kdn(a2-3)Gal(b1-3)GalNAc. The essentials: as §1
Assay [19] has as its target Kdn(a2-3)Gal(b1-3)GlcNAc. The gist of the method: as §1
Assay [20] concerns the target Kdn(a2-3)Gal(b1-4)Glc. The essentials:
as §1

Assay [21] has as its target Kdn(a2-3)Gal(b1-4)GlcNAc. The essentials:
as §1

Assay [22] deals with Kdn(a2-3)Gal(b1-4)[Fuc(a1-3)]GlcNAc. The essentials: as §1
Assay [23] has as its target Kdn(a2-6)Gal(b1-4)GlcNAc. The gist of the method:
as §1

B1: HPAIIITrx (Helix pomatia), Q1KM18 (protein)
chain: MLFVTIISLGLLAIVHGQCALKTIAFSAAIDREQTFDANQVVIYDIVITNHGNAYDNSTGLFTAPVDGMYSFQLNLLTIKEKEGWLELVHNGQLKVSVYAKQDSTYDSSSNSVIIKMKEGDRVNVRAHKKSGLFGRDDELYNTFSGHFLSGL
As to B1, the “glycan array binding signal (z-score)” value in [1] was -0.321; in [2], -0.043; in assay [3], -0.285; in assay [4] it was -0.062; in assay [5], -0.121; in [6] it was -0.288. For the same molecule, the “glycan array binding signal (z-score)” value in assay [7] was -0.329; in assay [8], -0.43; in assay [9], -0.063; in assay [10], -0.266; in assay [11] it was -0.175; in assay [12] it was -0.011. Also, the “glycan array binding signal (z-score)” value in assay [13] was -0.465; in assay [14], -0.309; in assay [15], -0.243; in assay [16], -0.558; in [17] it was -0.334; in assay [18], -0.152. Also, the “glycan array binding signal (z-score)” value in assay [19] is -0.428; in [20] it was 0.214; in assay [21], -0.318; in assay [22], -0.136; in [23] it was -0.263.
